Experimental data from the supplement of paper PMC10369915.
The other results are listed elsewhere or left out. Rule as the data show it: active = 3.2 or more and inactive = the rest. Only a few entries rise above the background.

The binders below were run against SHP2 C-SH2 domain E139D (assay: enrichment score (SH2-bound / input frequency) (ratio); bacterial display of known human phosphotyrosine sites (pTyr-Var adds point mutants) read by sequencing; higher = stronger binding; tyrosines were phosphorylated by kinases first). Settings: peptide library: Human pTyr.
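Also: displayed peptides selected on beads carrying the immobilized SH2 domain, with library peptides lacking any tyrosine serving as negative controls.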

Enrichment score, inactive:
IPAAYNRYDQERFKG [CDC73_HUMAN_293] 0.827
KRNKPTVYGVSPNAD [ABL1_HUMAN_226_YA] 0.922
KDNDSHVYAVIEDTM [CDCP1_HUMAN_734] 1.13
YGSPLKAYTPVVVTL [CD11B_HUMAN_594] 1.7
EDMRGILYAAPQLRS [CD19_HUMAN_508] 0.667
ENGGGQGYSSGPGTS [CD34_HUMAN_339] 0.633
SSSANAIYSLAARPL [CBL_HUMAN_674] 0.529
YRARVANYQRDGPMC [CAT_HUMAN_386] 0.711
YGSPLKAYTPVVVTQ [CD11A_HUMAN_582] 1.14
VEEDDDEYKIPSSHP [CBLB_HUMAN_709] 1.11
TKYNQELYTTHGLIK [CC105_HUMAN_372] 1.04
ASHVDNEYSQPPRNS [CD5_HUMAN_453] 0.655
TQEQAELYCEMGSTF [CBL_HUMAN_371_YA] 1.29
SEEQLQLYWAMDSTF [CBLC_HUMAN_341] 1.37
GGEQDADYLNDWGPR [CDH2_HUMAN_886_YA] 0.569
SRGLQGTYQDVGSLN [CD79A_HUMAN_210] 0.845
ERLGEDPYYTENGGG [CD34_HUMAN_329] 0.752
KQPIPAAYNRADQER [CDC73_HUMAN_290_YA] 0.975

These binders were tested against SHP2 C-SH2 domain wild-type in the same assay as above. Settings: peptide library: Human pTyr.

Enrichment score, inactive:
IPAAYNRYDQERFKG [CDC73_HUMAN_293] 0.734
KRNKPTVYGVSPNAD [ABL1_HUMAN_226_YA] 0.82
KDNDSHVYAVIEDTM [CDCP1_HUMAN_734] 1.36
YGSPLKAYTPVVVTL [CD11B_HUMAN_594] 2.2
EDMRGILYAAPQLRS [CD19_HUMAN_508] 0.44
ENGGGQGYSSGPGTS [CD34_HUMAN_339] 0.524
SSSANAIYSLAARPL [CBL_HUMAN_674] 0.428
YRARVANYQRDGPMC [CAT_HUMAN_386] 0.583
YGSPLKAYTPVVVTQ [CD11A_HUMAN_582] 1.97
VEEDDDEYKIPSSHP [CBLB_HUMAN_709] 1.06
TKYNQELYTTHGLIK [CC105_HUMAN_372] 0.968
ASHVDNEYSQPPRNS [CD5_HUMAN_453] 0.555
TQEQAELYCEMGSTF [CBL_HUMAN_371_YA] 1.03
SEEQLQLYWAMDSTF [CBLC_HUMAN_341] 1.27
GGEQDADYLNDWGPR [CDH2_HUMAN_886_YA] 0.463
SRGLQGTYQDVGSLN [CD79A_HUMAN_210] 0.646
ERLGEDPYYTENGGG [CD34_HUMAN_329] 0.782
KQPIPAAYNRADQER [CDC73_HUMAN_290_YA] 1.09

What follows are binders tested against SHP2 N-SH2 domain L43F in the same assay as above. Settings: peptide library: Human pTyr.

Enrichment score, inactive:
IPAAYNRYDQERFKG [CDC73_HUMAN_293] 0.858
KRNKPTVYGVSPNAD [ABL1_HUMAN_226_YA] 0.805
KDNDSHVYAVIEDTM [CDCP1_HUMAN_734] 0.897
YGSPLKAYTPVVVTL [CD11B_HUMAN_594] 1.16
EDMRGILYAAPQLRS [CD19_HUMAN_508] 0.566
ENGGGQGYSSGPGTS [CD34_HUMAN_339] 0.553
SSSANAIYSLAARPL [CBL_HUMAN_674] 0.5
YRARVANYQRDGPMC [CAT_HUMAN_386] 0.65
YGSPLKAYTPVVVTQ [CD11A_HUMAN_582] 0.757
VEEDDDEYKIPSSHP [CBLB_HUMAN_709] 1.04
TKYNQELYTTHGLIK [CC105_HUMAN_372] 1
ASHVDNEYSQPPRNS [CD5_HUMAN_453] 0.642
TQEQAELYCEMGSTF [CBL_HUMAN_371_YA] 1
SEEQLQLYWAMDSTF [CBLC_HUMAN_341] 1.24
GGEQDADYLNDWGPR [CDH2_HUMAN_886_YA] 0.568
SRGLQGTYQDVGSLN [CD79A_HUMAN_210] 0.61
ERLGEDPYYTENGGG [CD34_HUMAN_329] 0.86
KQPIPAAYNRADQER [CDC73_HUMAN_290_YA] 0.787

What follows are binders tested against SHP2 N-SH2 domain T42A in the same assay as above. Settings: peptide library: Human pTyr.

Enrichment score, inactive:
IPAAYNRYDQERFKG [CDC73_HUMAN_293] 0.766
KRNKPTVYGVSPNAD [ABL1_HUMAN_226_YA] 0.83
KDNDSHVYAVIEDTM [CDCP1_HUMAN_734] 1.14
YGSPLKAYTPVVVTL [CD11B_HUMAN_594] 2.63
EDMRGILYAAPQLRS [CD19_HUMAN_508] 0.562
ENGGGQGYSSGPGTS [CD34_HUMAN_339] 0.576
SSSANAIYSLAARPL [CBL_HUMAN_674] 0.554
YRARVANYQRDGPMC [CAT_HUMAN_386] 0.552
YGSPLKAYTPVVVTQ [CD11A_HUMAN_582] 2.42
VEEDDDEYKIPSSHP [CBLB_HUMAN_709] 1.22
TKYNQELYTTHGLIK [CC105_HUMAN_372] 0.957
ASHVDNEYSQPPRNS [CD5_HUMAN_453] 0.601
TQEQAELYCEMGSTF [CBL_HUMAN_371_YA] 1.06
SEEQLQLYWAMDSTF [CBLC_HUMAN_341] 1.49
GGEQDADYLNDWGPR [CDH2_HUMAN_886_YA] 0.617
SRGLQGTYQDVGSLN [CD79A_HUMAN_210] 0.574
ERLGEDPYYTENGGG [CD34_HUMAN_329] 0.789
KQPIPAAYNRADQER [CDC73_HUMAN_290_YA] 0.945

Each binder was assayed against SHP2 N-SH2 domain T52S in the same assay as above. Settings: peptide library: Human pTyr.

Enrichment score, inactive:
IPAAYNRYDQERFKG [CDC73_HUMAN_293] 0.854
KRNKPTVYGVSPNAD [ABL1_HUMAN_226_YA] 0.805
KDNDSHVYAVIEDTM [CDCP1_HUMAN_734] 0.896
YGSPLKAYTPVVVTL [CD11B_HUMAN_594] 1.24
EDMRGILYAAPQLRS [CD19_HUMAN_508] 0.662
ENGGGQGYSSGPGTS [CD34_HUMAN_339] 0.561
SSSANAIYSLAARPL [CBL_HUMAN_674] 0.514
YRARVANYQRDGPMC [CAT_HUMAN_386] 0.664
YGSPLKAYTPVVVTQ [CD11A_HUMAN_582] 0.961
VEEDDDEYKIPSSHP [CBLB_HUMAN_709] 1.17
TKYNQELYTTHGLIK [CC105_HUMAN_372] 1.51
ASHVDNEYSQPPRNS [CD5_HUMAN_453] 0.672
TQEQAELYCEMGSTF [CBL_HUMAN_371_YA] 1.1
SEEQLQLYWAMDSTF [CBLC_HUMAN_341] 1.59
GGEQDADYLNDWGPR [CDH2_HUMAN_886_YA] 0.643
SRGLQGTYQDVGSLN [CD79A_HUMAN_210] 0.599
ERLGEDPYYTENGGG [CD34_HUMAN_329] 0.664
KQPIPAAYNRADQER [CDC73_HUMAN_290_YA] 1.11

The binders below were run against SHP2 N-SH2 domain wild-type in the same assay as above. Settings: peptide library: Human pTyr.

Enrichment score, inactive:
IPAAYNRYDQERFKG [CDC73_HUMAN_293] 0.961
KRNKPTVYGVSPNAD [ABL1_HUMAN_226_YA] 0.854
KDNDSHVYAVIEDTM [CDCP1_HUMAN_734] 0.871
YGSPLKAYTPVVVTL [CD11B_HUMAN_594] 1.48
EDMRGILYAAPQLRS [CD19_HUMAN_508] 0.682
ENGGGQGYSSGPGTS [CD34_HUMAN_339] 0.653
SSSANAIYSLAARPL [CBL_HUMAN_674] 0.48
YRARVANYQRDGPMC [CAT_HUMAN_386] 1.03
YGSPLKAYTPVVVTQ [CD11A_HUMAN_582] 0.811
VEEDDDEYKIPSSHP [CBLB_HUMAN_709] 1.2
TKYNQELYTTHGLIK [CC105_HUMAN_372] 1.25
ASHVDNEYSQPPRNS [CD5_HUMAN_453] 0.692
TQEQAELYCEMGSTF [CBL_HUMAN_371_YA] 1.29
SEEQLQLYWAMDSTF [CBLC_HUMAN_341] 1.53
GGEQDADYLNDWGPR [CDH2_HUMAN_886_YA] 0.619
SRGLQGTYQDVGSLN [CD79A_HUMAN_210] 0.703
ERLGEDPYYTENGGG [CD34_HUMAN_329] 0.64
KQPIPAAYNRADQER [CDC73_HUMAN_290_YA] 1.14
